In patent US20100173833A1, “METHODS AND COMPOSITION FOR USE OF CYCLIC ANALOGUES OF HISTATIN” (priority 2007, published 2010):
Converted amounts (≈) assume the structure as drawn. Where two headings read alike, the source gives them in different places.

Assays:
[1] = test system: Candida albicans (isolate #3); conditions: clinical isolate #3; 1 hour 37° C. in 10 mM NaCl/50 mM MOPS, pH 7.2, then YPD 24 hours 30° C.
[2] = test system: Candida albicans (isolate #AST97); conditions: clinical isolate AST97 (blood culture); 1 hour 37° C. in 10 mM NaCl/50 mM MOPS, pH 7.2, then YPD 24 hours 30° C.
[3] = test system: Candida dubliniensis (isolate #10); conditions: clinical isolate #10; 1 hour 37° C. in 10 mM NaCl/50 mM MOPS, pH 7.2, then YPD 24 hours 30° C.
[4] = test system: Candida tropicalis (isolate #93); conditions: clinical isolate #93; 1 hour 37° C. in 10 mM NaCl/50 mM MOPS, pH 7.2, then YPD 24 hours 30° C.
[5] = test system: Candida albicans (SC5314); experiment: microbe, parasite or virus in culture; conditions: SC5314, pH 7.2
[6] = test system: Candida albicans (isolate #3); experiment: microbe, parasite or virus in culture; conditions: pH 7.2
[7] = test system: Candida albicans (isolate #AST97); experiment: microbe, parasite or virus in culture; conditions: pH 7.2
[8] = test system: Candida dubliniensis (isolate #10); experiment: microbe, parasite or virus in culture; conditions: pH 7.2
[9] = test system: Candida tropicalis (isolate #93); experiment: microbe, parasite or virus in culture; conditions: pH 7.2
Bacillus subtilis = experiment: MIC, inhibition of cell growth; assay type: cell-based; conditions: lab strain; 1 hour 37° C. in 10 mM NaCl/50 mM MOPS, pH 7.2, then YPD 24 hours 37° C.
MRSAS. aureus (STRAIN 1) = conditions: clinical MRSA strain 1; 1 hour 37° C. in 10 mM NaCl/50 mM MOPS, pH 7.2, then YPD 24 hours 37° C.
MRSAS. aureus (STRAIN 2) = conditions: clinical MRSA strain 2; 1 hour 37° C. in 10 mM NaCl/50 mM MOPS, pH 7.2, then YPD 24 hours 37° C.
Candida albicans = conditions: concentration of Fluconazole, Ketoconazole or Itraconazole, alone or in combination; 1 hour 37° C. in 20 mM Tris-Cl, pH 7.2, 20 mM NaCl, then YPD 24 hours
[10] = test system: Candida albicans (isolate #99); experiment: microbe, parasite or virus in culture; conditions: pH 7.2

Row | Compound | MIC [1] [µM] | MIC [2] [µM] | MIC [3] [µM] | MIC [4] | MIC [5] [µM] | MIC [6] [µM] | MIC [7] [µM] | MIC [8] [µM] | MIC [9] [µM] | MIC (Bacillus subtilis) [µM] | MIC (MRSAS. aureus (STRAIN 1)) [µM] | MIC (MRSAS. aureus (STRAIN 2)) [µM] | MIC (azole) (Candida albicans) [µM] | MIC [10] [µM]
1 | C[C@@H]1[C@H](O)[C@@H](C)/C=C/C=C/C=C/C=C/C=C/C=C/C=C/[C@H](O[C@@H]2O[C@H](C)[C@@H](O)[C@H](N)[C@@H]2O)C[C@@H]2O[C@](O)(C[C@@H](O)C[C@@H](O)[C@H](O)CC[C@@H](O)C[C@@H](O)CC(=O)O[C@H]1C)C[C@H](O)[C@H]2C(=O)O [AMP-b, Amphoteracin-h] | 0.6 (≈ 0.554 µg/mL) | 4.5 (≈ 4.16 µg/mL) | 5.4 (≈ 4.99 µg/mL) | ≧6.5 uM |  |  |  |  |  |  |  |  |  | 
2 | OC(Cn1cncn1)(Cn1cncn1)c1ccc(F)cc1F [FLU, Fluconazole] |  |  |  |  | ≥ 97.9 | ≥ 97.9 | ≥ 97.9 | ≥ 97.9 | ≥ 97.9 |  |  |  |  | 
3 | C[C@H](NC(=O)[C@H](Cc1c[nH]cn1)NC(=O)[C@H](CO)NC(=O)[C@@H](N)CC(=O)O)C(=O)N[C@@H](CCCCN)C(=O)N[C@@H](CCCNC(=N)N)C(=O)N[C@@H](Cc1c[nH]cn1)C(=O)N[C@@H](Cc1c[nH]cn1)C(=O)NCC(=O)N[C@@H](Cc1ccc(O)cc1)C(=O)N[C@@H](CCCCN)C(=O)N[C@@H](CCCNC(=N)N)C(=O)N[C@@H](CCCCN)C(=O)N[C@@H](Cc1ccccc1)C(=O)N[C@@H](Cc1c[nH]cn1)C(=O)N[C@@H](CCC(=O)O)C(=O)N[C@@H](CCCCN)C(=O)N[C@@H](Cc1c[nH]cn1)C(=O)N[C@@H](Cc1c[nH]cn1)C(=O)N[C@@H](CO)C(=O)N[C@@H](Cc1c[nH]cn1)C(=O)N[C@@H](CCCNC(=N)N)C(=O)NCC(=O)N[C@@H](Cc1ccc(O)cc1)C(=O)O [H5] | >350 | >350 | >350 | >350 µM |  |  |  |  |  | >350 | >350 | >350 |  | 
4 | CCC(C)n1ncn(-c2ccc(N3CCN(c4ccc(OCC5COC(Cn6cncn6)(c6ccc(Cl)cc6Cl)O5)cc4)CC3)cc2)c1=O (stereo not shown) [ITRA, Itraconazole] |  |  |  |  | 3.1 (≈ 2.19 µg/mL) | ≥ 7.09 | 5.4 (≈ 3.81 µg/mL) | ≥ 7.09 | ≥ 7.09 |  |  |  | 0.71 | 
5 | CC(=O)N1CCN(c2ccc(OCC3COC(Cn4ccnc4)(c4ccc(Cl)cc4Cl)O3)cc2)CC1 (stereo not shown) [KETO, Ketoconazole] |  |  |  |  | 5.5 (≈ 2.92 µg/mL) | ≥ 9.41 | 1.2 (≈ 0.638 µg/mL) | ≥ 9.41 | ≥ 9.41 |  |  |  |  | 6.2 (≈ 3.29 µg/mL)
